# In the supplement of paper PMC3334620:
# In all, about 33,000 sequences were measured (“E-score (-0.5 to 0.5)”: median about -0.035, highest 2% from about 0.34 on). This is one part of the list.
# Molecular target: T1, Mot3 (UniProt P54785)
# T1 sequence: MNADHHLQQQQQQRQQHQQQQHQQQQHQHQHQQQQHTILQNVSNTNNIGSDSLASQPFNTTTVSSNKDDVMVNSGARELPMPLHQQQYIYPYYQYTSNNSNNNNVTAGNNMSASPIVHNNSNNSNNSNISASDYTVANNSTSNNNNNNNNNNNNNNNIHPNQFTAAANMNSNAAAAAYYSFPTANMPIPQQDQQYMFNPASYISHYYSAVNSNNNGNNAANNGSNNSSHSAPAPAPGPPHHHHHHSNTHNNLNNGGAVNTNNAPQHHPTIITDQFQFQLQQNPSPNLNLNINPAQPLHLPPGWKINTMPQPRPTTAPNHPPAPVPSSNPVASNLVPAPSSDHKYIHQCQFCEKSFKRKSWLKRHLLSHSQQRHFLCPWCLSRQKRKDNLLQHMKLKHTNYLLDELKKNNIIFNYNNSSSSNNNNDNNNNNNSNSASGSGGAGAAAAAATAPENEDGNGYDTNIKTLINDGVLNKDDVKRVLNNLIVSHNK
# Test: PBM E-score (8-mer binding enrichment) (E-score (-0.5 to 0.5)); higher = stronger / more preferred TF binding; most listed sequences are background and not binding sites
# Details: protein concentration: 200 nM; construct: GST-full length
# Summary of the method: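 PURExpress in vitro transcription/translation supplied GST-tagged yeast transcription factors, either full-length or DNA-binding domain. Applied at about 100-200 nM to universal all-10-mer Agilent arrays double-stranded by primer extension, the bound protein was detected with fluorescent anti-GST. E-scores, modified Wilcoxon-Mann-Whitney statistics, were given by the Universal PBM Analysis Suite to ungapped eight-base words pooled with their reverse complements after masliner normalisation.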
row,Sequence,PBM E-score
1,AGGTAAAT,0.318
2,CGAGGGGA,-0.213
3,CGTTAATC,0.162
4,CTAAACAA,0.0775
5,ATCCCCCG,-0.175
6,ACCAACCT,-0.0745
7,AATCCGAT,-0.0237
8,CAGAAACA,0.0657
9,GCAAACTA,0.148
10,ACACCTAA,0.168
11,AGCGGTTC,0.0842
12,ACGGAATG,-0.157
13,CCAGTGTC,0.0415
14,GGACTGAA,-0.13
15,ACACATAC,0.299
16,AAAGTGGT,-0.156
17,ATCAAGCC,-0.00984
18,CCGCGGGC,-0.252
19,CTAAATGA,-0.0149
20,AAGCCCTC,-0.0664
21,TCATAAAA,-0.0377
22,ATTCATCG,0.099

row,Sequence,PBM E-score
1,CGTGCCGC,-0.111
2,ACACTGAG,-0.128
3,ACTTGAAG,0.176
4,CAAAACGG,0.0166
5,GCTCTTCC,-0.118
6,AAACCGAC,-0.0399
7,ATCTCTGA,-0.0898
8,CCTAACCG,-0.00016
9,CGGCCTTA,-0.159
10,ACAAGTGC,0.201
11,CTCGAGCA,-0.0333
12,AGAATCAT,0.0403
13,CTTCATCC,-0.199
14,AAACCAGA,0.0875
15,ACGGGGAA,-0.0674
16,ACAGATGA,-0.0138
17,AACACCCT,-0.096
18,ATTGGTAA,-0.0692
19,GCGTGGCC,-0.0316
20,AGCGATGC,-0.257
21,ACACACGG,0.182
22,GCCTGAAA,0.274

row,Sequence,PBM E-score
1,GCGCACCC,-0.193
2,GAATAACC,-0.0707
3,ATGCTGAG,-0.281
4,CAACGCAG,-0.0527
5,AACCGACC,-0.131
6,CATGCTAA,0.259
7,GACGCTCC,-0.332
8,CACCTGCA,-0.0084
9,GTAGCCGA,-0.106
10,ACCCTTTC,0.104
11,ACAGACGC,-0.0211
12,GCCTCGTA,0.213
13,GAACGTGA,0.0923
14,CTAATGCA,0.157
15,CACGTCTC,0.0524
16,ATAAACCG,-0.195
17,GGGCGCCC,-0.398
18,CGTCGGAG,0.0541
19,ACCTAGGT,0.124
20,CCCGCACG,-0.204
21,CCGCTGAC,-0.283
22,AGTGAAAA,0.0385

row,Sequence,PBM E-score
1,CAGATATC,-0.0408
2,ACAAAGTC,0.146
3,ACGGTGCC,0.343
4,ACTAGACT,-0.302
5,AGTGTCAA,-0.0255
6,CGGGACCG,-0.297
7,GAATCACC,-0.0847
8,GTATCGCA,-0.129
9,CCGCCTGA,-0.217
10,ATGAGCAT,0.0104
11,ACTGGTCT,-0.0925
12,CGCAGTTA,-0.0494
13,AATAAGCC,-0.215
14,AGCGATGA,-0.0295
15,ATGAGAAA,0.0957
16,TAAGACGA,0.125
17,CAGGTTTA,0.0132
18,AACTACTA,0.106
19,GCGTCAGA,-0.0838
20,GCCGATTA,-0.0449
21,ACATCACA,0.182
22,CCTACTAC,0.0289

row,Sequence,PBM E-score
1,CCAGGCCC,-0.101
2,ATTGCCCC,-0.176
3,ATCCCAAA,-0.183
4,TCAATCGA,-0.00745
5,AGACGCCT,0.0148
6,CATTAGGG,-0.0155
7,AAAGTAGT,0.132
8,GATTACCA,0.034
9,ACGTAGTG,0.0413
10,AGAAACAG,0.128
11,CAGAGTGG,-0.165
12,AGGCCAGG,-0.0356
13,CTAATATA,0.179
14,AAGACGCC,-0.225
15,ATCAAAAG,-0.134
16,ATGAGTAC,0.075
17,CCTAGGTC,-0.251
18,AACTTTTA,0.204
19,CCTCGTAC,0.00505
20,TAACTGGA,-0.17
21,GCCGTGCA,-0.0598
